Sequences with one replicate were seen in a single cluster, so their values are uncertain.
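Note: ATP exposure 15 min at 22 °C before imaging.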

The data set concerns ATP. Description: switch fluorescence ratio, 500 uM ATP over buffer (Cy3 cluster intensity, sum of 5 cycles each) (fold (ratio)); higher = stronger signal-on switching upon ATP binding; sequences stand for … in TCGTCGGCAGCGTCAGATGTGTATAAGAGACAGTTTTTTTTTTTTTTTTTTTTTTTTT…TC. Conditions: aptamer strand: ATP DNA aptamer (quencher-CACCTGGGGGAGTATTGCGGAGGAAGG + anchor), 100 nM annealed; ATP concentration: 500 uM; one replicate. The method in brief:
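Per cluster, summed Cy3 intensity from the target cycles was divided by that from the buffer cycles to give the fluorescence ratio, then averaged per switch-domain sequence. Clusters outside 100-1000 RFU were excluded. The Cy3-labelled switching-strand clusters, on a modified Illumina MiSeq flow-cell, were annealed to 100 nM quencher-labelled ATP aptamer and imaged in selection buffer, then after 15 min with 500 uM ATP at 22 °C, for five cycles with NaOH stripping and re-annealing between them.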
Take AAGACGTTGG: the switch fluorescence ratio was 1.02.
As to CCGGGACGCG, the switch fluorescence ratio was determined as 1.07.
Regarding TGCAGGGTAT, the switch fluorescence ratio was found to be 1.18.
For GCAGACGAGT the value was 0.93.
With CGAGGAGCGG the figure was 1.01; with GGTATGGAAG, 0.99; with AGTCGTGTTC, 1.01.
For CGCGGGCTGG the value was 1.03; for CACATCAAAA, 1.01; for CTTCGACCGT, 0.999.
With TTGCCCTTGG, the switch fluorescence ratio is 1.13.
For CTTTTTTTGA the value was 0.985; for TTTTACCTGG, 1.01; for CGATGCTGAC, 1.79.
Turning to AGAATACATC, the switch fluorescence ratio came to 1.04.
With TAAATCTGAA the figure was 1.01; with TGGCCGGCAT, 1.01.
With TCTTCGGTGT, the switch fluorescence ratio came to 0.992.
For ATAGGTTGTG the value was 1.02; for CTTTTTCACC, 1.05.
Turning to CAGTAGGGG, the switch fluorescence ratio is 0.949.
Consider AATGAAGTAT, for which the switch fluorescence ratio is 0.966.
With TGGGATGATT the figure was 1.01; with TATTCCTAGT, 1; with CGTAATCGGT, 1.04.
For ATTTTATGAT the value was 1.01; for TAATATCCG, 1.08.
For ACGACTGGTT the value was 1.04; for CTATCGGCTC, 0.976.
On to AGCTTAGTAT, for which the switch fluorescence ratio was determined as 1.01.
Regarding CGGACGGCTG, the switch fluorescence ratio is 0.981.
ATGCTTCCGT: the switch fluorescence ratio came out at 1.17.
With AGGGACAACA the figure was 1.08; with TTGGAGTCAG, 1.63.
Consider AGGCAACTGC, for which the switch fluorescence ratio was 1.08.
For ATACGTTTGC the value was 1.07; for GAGGGACATA, 1.01; for TCGGATGGGG, 0.954.
Take GACAGTTAGT: the switch fluorescence ratio is 1.06.
With AAAGCGTTG the figure was 1.04.
In the case of TAAGCTGAAA, the switch fluorescence ratio worked out at 0.955.
For the sequence TTTTTGATTC, the switch fluorescence ratio came out at 1.02.
For ATACGGGTT the value was 1.02.
With CAACATCCTA, the switch fluorescence ratio was found to be 1.02.
With CTTAAACGAT the figure was 1.04; with GCTGTGATGC, 1.06; with ACCAGCCGGT, 0.959.
With GAGTCCTAGC the figure was 0.976; with TTCACCCTGG, 1.23; with GCACCATTAA, 1.03.
With GGGGGTGCA the figure was 0.984; with AAAACGCAAC, 1.22.
For the sequence TGGACATTTA, the switch fluorescence ratio came to 1.03.
With CGTGTTGGAA, the switch fluorescence ratio amounted to 0.99.
For AGCATTCTTC the value was 1.07; for TAGTGCCCGA, 1.
For GATCTTTAAC the value was 0.996; for GAGCTGGG, 1.07.
Consider TAAGAGCCGG, for which the switch fluorescence ratio was 1.02.
With GATTAAAAAA the figure was 1; with TATTGTAAAA, 1.08.
With TAAGGTATTC the figure was 1.03; with CAATGGGTAA, 0.97.
Turning to TCTGCTCGGG, the switch fluorescence ratio was determined as 0.975.
For GATTGGGGAC the value was 0.979; for TGGCTGCTAG, 0.97.
Consider TTAGGACAT, for which the switch fluorescence ratio was determined as 1.03.
